The record followed here is patent US7910101B2, “Melanocortin receptor binding mimetibodies, compositions, methods and uses” (Centocor, Inc., priority 2004, dated 2011).

In the test the test system is male Sprague-Dawley or Wistar rats. Kind of test: Food intake and body weight after intracerebroventricular injection in fasted rats. The class given is in vivo. The following applies: ICV administration to rat brain ventricles. The source says: Alpha-MSH mimetibody was supplied to brain ventricules by intracerebroventricular injections (ICV) via a cannula surgically inserted into the left lateral brain ventricle.
Cannulae were surgically inserted into male Sprague-Dawley or Wistar rats weighing 250 g to 350 g. Cannula placement coordinates were as follows: −0.8 mm from bregma, −4.5 mm ventral and −1.5 posterior-anterior. Animals recovered for 7 to 10 days after surgery. Animals were acclimatized to the experimental procedures by both daily handling and mock injection, in order to minimize stress. In addition animals were submitted to the reversal of dark-light cycle.
Proper cannula placement was confirmed by an angiotensin II test. The test confirmed proper cannula placement if the ICV administration of 10 ng of angiotensin II via the cannula caused the rats to drink 5-10 ml of water in 30 minutes. Only animals that passed this angiotensin II test were used in food intake experiments.
Food and water was given to the animals after injection. The amount of food and water consumed was measured at 0 h, 4 h, 24 h, 48 h and 72 h (FIG. 7) after injection.

B1: alpha-MSH mimetibody: protein comprising secretory signal, alpha-MSH peptide, linker, VH, hinge, human IgG1 CH2 and CH3 sequences (SEQ ID NO: 62) (protein)
chain: MAWVWTLLFLMAAAQSIQAQIQSYSMEHFRWGKPVGSGGGSGTLVTVSS[human IgG1 Fc not spelt out]
modifications: Melanocortin receptor binding alpha-MSH mimetibody with secretory signal and V1 encoded by an in vitro synthesized DNA
In the case of B1, where the note is “72 hours post injection, FIG. 8”, the animal body weight entry is reported as “decreases”. Besides, the animal food intake entry (measured 0-72 h after injection, FIG. 7) is recorded as “decreases animal food intake”.
